Data reported in the supplement of paper PMC4967469.
IC50 is the fitted dose that halves viability relative to control wells, and lower means more sensitive; fits outside the tested doses are given as limits. AUC, from the same fit, is the share of area under the viability curve across the 256-fold dose range; the more sensitive the line, the further below 1. Any top dose called inferred was derived from the fitted curves, not read from the paper.

Tests used:
Assay in all cases: Viability of human cancer cell lines after 72 h of drug (GDSC screen)
QL-XI-92 = compound: C=CC(=O)Nc1cc(NC(=O)c2ccc(C)c(NC(=O)c3ccno3)c2)cc(C(F)(F)F)c1 [QL-XI-92]; conditions: top dose 10.24 µM; top dose inferred
Protocol: (§1)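 Human cancer cell lines in 384-well plates, medium with 10% serum, drug for 72 h over a 256-fold dose range (nine 2-fold or five 4-fold steps up to the top dose). Adherent lines were fixed and stained with the nucleic acid dye Syto60, suspension lines read with resazurin; signal relative to control wells, capped at 0 and 100%. One two-parameter sigmoid per drug and line, fitted in a mixed model over all curves with the slope shared within a line.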

Vinorelbine = compound: CCC1=C[C@@H]2CN(C1)Cc1c([nH]c3ccccc13)[C@@](C(=O)OC)(c1cc3c(cc1OC)N(C)[C@H]1[C@@](O)(C(=O)OC)[C@H](OC(C)=O)[C@]4(CC)C=CCN5CC[C@]31[C@@H]54)C2 [Vinorelbine]; conditions: top dose 0.064 µM; top dose inferred
Protocol: as §1

WHI-P97 = compound: COc1cc2ncnc(Nc3cc(Br)c(O)c(Br)c3)c2cc1OC [WHI-P97]; conditions: top dose 10.24 µM; top dose inferred
Protocol: as §1

EHT 1864 = compound: O=c1cc(CN2CCOCC2)occ1OCCCCCSc1ccnc2cc(C(F)(F)F)ccc12 [EHT 1864]; conditions: top dose 10 µM; top dose inferred
Protocol: as §1

Phenformin = compound: N=C(N)NC(=N)NCCc1ccccc1 [Phenformin]; conditions: top dose 4000 µM; top dose inferred
Protocol: as §1

XL-184 = compound: COc1cc2nccc(Oc3ccc(NC(=O)C4(C(=O)Nc5ccc(F)cc5)CC4)cc3)c2cc1OC [XL-184]; conditions: top dose 5.12 µM; top dose inferred
Protocol: as §1

AG-014699 = compound: CNCc1ccc(-c2[nH]c3cc(F)cc4c3c2CCNC4=O)cc1 [AG-014699]; conditions: top dose 5 µM; top dose inferred
Protocol: as §1

Cell Line	AUC (QL-XI-92)	IC50 (QL-XI-92)	AUC (Vinorelbine)	IC50 (Vinorelbine)	AUC (WHI-P97)	IC50 (WHI-P97)	AUC (EHT 1864)	IC50 (EHT 1864)	AUC (Phenformin)	IC50 (Phenformin)	AUC (XL-184)	IC50 (XL-184)	AUC (AG-014699)	IC50 (AG-014699)
HPAF-II (pancreas, adherent)	0.955	> 10.2 µM	0.692	0.0165 µM	0.934	> 10.2 µM	0.907	> 10 µM	0.83	3660 µM	0.864	> 5.12 µM	0.94	> 5 µM
HSC-3 (head and neck, adherent)	0.971	> 10.2 µM	0.577	0.00627 µM	0.974	> 10.2 µM	0.979	> 10 µM	0.85	2380 µM	0.986	> 5.12 µM	0.99	> 5 µM
HTC-C3 (thyroid, adherent)	0.907	> 10.2 µM	0.777	0.0291 µM	0.93	> 10.2 µM	0.95	> 10 µM	0.96	> 4000 µM	0.89	> 5.12 µM	0.958	> 5 µM
Hs940-T (melanoma, adherent)	0.833	8.67 µM	0.622	0.00931 µM	0.984	> 10.2 µM	0.957	> 10 µM	0.972	> 4000 µM	0.984	> 5.12 µM	0.984	> 5 µM
IM-95 (stomach, adherent)	0.983	> 10.2 µM	0.482	0.00357 µM	0.986	> 10.2 µM	0.925	> 10 µM	0.702	967 µM	0.789	2.43 µM	0.964	> 5 µM
K-562 (chronic myeloid leukaemia, suspension)	0.677	1.96 µM	–	–	0.949	> 10.2 µM	–	–	0.481	223 µM	0.708	1.21 µM	–	–
KP-4 (pancreas, adherent)	0.95	> 10.2 µM	0.442	0.0028 µM	0.985	> 10.2 µM	0.937	> 10 µM	–	–	0.941	> 5.12 µM	0.934	> 5 µM
NCI-H1299 (large cell lung carcinoma, adherent)	0.97	> 10.2 µM	–	–	0.96	> 10.2 µM	0.947	> 10 µM	0.626	603 µM	–	–	0.936	> 5 µM
NCI-H1573 (lung adenocarcinoma, adherent)	0.985	> 10.2 µM	–	–	0.976	> 10.2 µM	0.959	> 10 µM	0.962	> 4000 µM	0.985	> 5.12 µM	0.988	> 5 µM
NCI-H1650 (lung adenocarcinoma, adherent)	–	–	–	–	–	–	0.969	> 10 µM	–	–	–	–	0.981	> 5 µM
NCI-H1793 (lung adenocarcinoma, adherent)	0.978	> 10.2 µM	–	–	0.964	> 10.2 µM	0.913	> 10 µM	0.878	> 4000 µM	0.964	> 5.12 µM	0.96	> 5 µM
NCI-H1915 (large cell lung carcinoma, adherent)	0.965	> 10.2 µM	–	–	0.982	> 10.2 µM	0.966	> 10 µM	0.83	2570 µM	0.986	> 5.12 µM	0.926	> 5 µM
NCI-H2122 (lung adenocarcinoma, adherent)	0.987	> 10.2 µM	–	–	0.981	> 10.2 µM	0.984	> 10 µM	0.87	3340 µM	0.988	> 5.12 µM	0.989	> 5 µM
NCI-H2228 (lung adenocarcinoma, adherent)	0.931	> 10.2 µM	0.564	0.00652 µM	0.903	> 10.2 µM	–	–	0.694	1170 µM	0.91	> 5.12 µM	–	–
SNU-175 (large intestine, suspension)	0.98	> 10.2 µM	–	–	0.942	> 10.2 µM	–	–	0.773	1460 µM	0.899	> 5.12 µM	–	–
SNU-398 (liver, adherent)	0.935	> 10.2 µM	0.389	0.00195 µM	0.963	> 10.2 µM	0.955	> 10 µM	0.927	> 4000 µM	0.964	> 5.12 µM	–	–
SNU-475 (liver, adherent)	0.972	> 10.2 µM	0.924	> 0.064 µM	0.99	> 10.2 µM	–	–	0.99	> 4000 µM	0.898	> 5.12 µM	–	–
SNU-1040 (large intestine, adherent)	0.917	> 10.2 µM	–	–	0.809	7.71 µM	–	–	0.951	> 4000 µM	0.9	> 5.12 µM	–	–
SW1116 (large intestine, adherent)	0.985	> 10.2 µM	–	–	0.982	> 10.2 µM	0.981	> 10 µM	0.986	> 4000 µM	0.982	> 5.12 µM	0.983	> 5 µM
U251 (glioma, adherent)	0.852	7.34 µM	0.605	0.00767 µM	0.986	> 10.2 µM	0.926	> 10 µM	0.58	409 µM	0.842	3.34 µM	–	–
U-2-OS (osteosarcoma, adherent)	0.976	> 10.2 µM	0.985	> 0.064 µM	0.984	> 10.2 µM	0.94	> 10 µM	–	–	0.983	> 5.12 µM	0.915	> 5 µM
UACC-812 (breast, adherent)	0.99	> 10.2 µM	0.99	> 0.064 µM	0.938	> 10.2 µM	–	–	0.918	> 4000 µM	0.954	> 5.12 µM	–	–
YMB-1-E (breast, adherent)	0.961	> 10.2 µM	–	–	0.977	> 10.2 µM	–	–	0.808	3080 µM	0.969	> 5.12 µM	–	–
